{
  "source": "patent US20250101001A1",
  "about": "(priority 2021, published 2025)",
  "data": [
    {"test_system": "rat cortical neurons", "parameters": "key: A: Statistically significant mean increase as a parent of DMSO control at 10 μM or less; B: No statistically significant mean increase as a percent of DMSO control at 10 μM or less", "settings": "compound added at 3 DIV, fixed at 9 DIV, vs DMSO control at 10 μM or less", "source_text": "Neurite Outgrowth Assay in Primary Neuronal Cultures (Cellectricon). Changes in the pattern of neurite outgrowth have been implicated in psychiatric and neurodegenerative disorders as well as traumatic injuries. The discovery of new compounds that can positively affect neuritogenesis are important for developing new therapeutics for neurological diseases. Measurement of neurite outgrowth of rat cortical neurons using an automated image-based assay was used to determine the neuroplastic effects of the compounds of the present invention. The neurite outgrowth assay was performed at Cellectricon AB (Sweden) as described below. All experimental work was conducted in accordance with European and Swedish animal welfare regulations. Pregnant Wistar Han rats (Janvier Labs, France) were housed and the cortices microsurgically dissected at University of Gothenburg, dept. Experimental Biomedicine by trained Cellectricon staff at gestation day 17 ½. The cortical cell culture preparations were performed in the cell laboratory at Cellectricon under sterile conditions.\nCortices were collected in microtubes with Hibernate E on ice. The tissue was triturated with a sterile glass Pasteur pipette to dissociate the tissue and the supernatant from each tube was transferred and pooled into one tube. To each remaining pellet, fresh Hibernate E was added. The trituration procedure above was repeated to fully dissociate the tissue. After the final trituration, the cell suspension was centrifuged. The supernatant was removed, and the pellet re-suspended by addition of Neurobasal complete medium. The cell suspensions were triturated between each addition to dissociate cell aggregates. The cells were counted using an automated cell counter (Countess II 2.0, Invitrogen).\nCells were added to wells in Cellaxess Elektra Poly-D-Lysine coated 384-well plates (Cellectricon AB) at a density of 2500 cells/well. Cells were cultured at 37° C., 5% CO2, 95% humidity. Test compounds were added after 3 days in vitro (DIV) to the cell cultures in concentration response format. The reference compound DL-2,5-Dimethoxy-4-iodoamphetamine hydrochloride (DOI, #10998.11, Chiron/Lab Sweden) was added in a fixed concentration (10 μM) to each plate. At 9 DIV, cell cultures were fixated using 4% PFA. After fixation, plates were blocked with a PBS-based solution consisting of 2% normal goat serum, 0.2% Triton X-100 and stained with primary antibody (anti-p-tubulin III; 1:1000) for detecting the axonal network, incubated overnight and thereafter with secondary antibody. In addition, cultures were stained with Hoechst (1:10 000) for nuclear staining.\nHigh content data was acquired using a Perkin Elmer Operetta high content imager. Data analysis was carried out using the Perkin Elmer Harmony analysis software. To evaluate total number of cells, nuclei were identified using a predefined nuclear detection step. For quantification of total neurite length, the anti-j-III-tubulin positive neurites were detected with a predefined detection step, with parameters adjusted to aid optimal detection of the neurite network staining. For quantification of parameters on a single cell level, neurites were allocated to individual cell bodies. The cell body of an individual neuron was determined as the cytoplasm around the previously selected nucleus in a median smoothed image of the anti-p-III-tubulin staining. Compound effect on neurite outgrowth was evaluated based on two parameters: “number of type one nodes” (single cell level) and “total segment length” (population level). Total segment length data was fitted to Hill's equation and EC50 values were determined for active compounds.", "values": [
      {"molecule": "Cc1cn(C2CNC2)c2ccc(F)cc12", "note": "[Compound 1, 1-(azetidin-3-yl)-5-fluoro-3-methyl-1H-indole]", "Increase in Neurite Branchpoints": "B", "Increase in Neurite Length": "B"},
      {"molecule": "Fc1ccc2c(ccn2C2CNC2)c1F", "note": "[Compound 2, 1-(azetidin-3-yl)-4,5-difluoro-1H-indole]", "Increase in Neurite Branchpoints": "A", "Increase in Neurite Length": "A"},
      {"molecule": "Fc1ccc2c(ccn2C2CCNC2)c1F", "note": "(centres unmarked) [Compound 15, 4,5-Difluoro-1-(pyrrolidin-3-yl)-1H-indole]", "Increase in Neurite Branchpoints": "A", "Increase in Neurite Length": "A"},
      {"molecule": "Fc1ccc2c(ccn2C2CNC2)c1", "note": "[Compound 27, 1-(azetidin-3-yl)-5-fluoro-1H-indole]", "Increase in Neurite Branchpoints": "A", "Increase in Neurite Length": "A"}
    ]}
  ]
}
